# Reference: patent US20030229082A1, “Inhibition of RNA function” (The Regents of the University of California, priority 2002, published 2003)
# Tested on: hybrid RevTat protein on the RRE
# Assay: CAT assay in HeLa cells, heterologous tethering control
# Settings: specificity control
smiles,measurement,value
CN1CCN(CCCN2c3ccccc3Sc3ccc(Cl)cc32)CC1 [prochlorperazine],effect on the hybrid RevTat protein on the RRE,no effect
